Source: the supplement of paper PMC3334620
The full ranking holds about 33,000 sequences; the median of “E-score (-0.5 to 0.5)” is about -0.056, and the highest 2% start at about 0.38. The list shows a part of the results.

molecular target: Stb4 (UniProt P50104); assay: PBM E-score (8-mer binding enrichment) (E-score (-0.5 to 0.5)); higher = stronger / more preferred TF binding; most listed sequences are background and not binding sites; settings: protein concentration: 200 nM; construct: GST-DNA-binding domain
Procedure, shortened: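 For each ungapped eight-base word taken together with its reverse complement, the Universal PBM Analysis Suite assigned an E-score. Binding data came from GST-tagged yeast transcription factors, applied at about 100-200 nM, on universal all-10-mer Agilent arrays made double-stranded by primer extension. Fluorescent anti-GST marked bound protein, and scans were normalised with masliner.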

| Sequence | PBM E-score |
| --- | --- |
| AAGGAAGC | 0.0477 |
| TAGAACCA | -0.153 |
| GACGCCAC | -0.108 |
| ATCGGACC | 0.308 |
| AGAGGTGC | -0.0186 |
| CTAGATGA | -0.231 |
| CAGGCACA | -0.178 |
| GAGGTTTA | 0.0299 |
| GTAATAAC | -0.0893 |
| GTGCTGGA | -0.0798 |
| ATGCCGGC | 0.263 |
| GCGACCGC | 0.00901 |
| ACGCTAAC | -0.0806 |
| GCAAGATA | -0.171 |
| CCTGTGGA | -0.132 |
| AGCAGTGA | 0.0464 |
| AGGGTCGA | 0.0733 |
| CCTCAAAG | -0.189 |
| ATGGTGGA | -0.154 |
| CCGTTTAG | 0.166 |
| AACTGTCT | -0.222 |
| ATATGCAG | -0.103 |

| Sequence | PBM E-score |
| --- | --- |
| GCTGGTCA | -0.156 |
| ATTTAGAG | -0.118 |
| AAGCGTTA | -0.191 |
| CAATTTGC | -0.167 |
| GCCCTTCC | 0.0959 |
| AGTGAGTC | -0.198 |
| ACCTCAGT | -0.0847 |
| CTCTATAC | -0.104 |
| AGCGCTAA | -0.0696 |
| ACCGTTTA | 0.078 |
| AAGTTAAG | -0.136 |
| ATTAGTGG | -0.0523 |
| TCTAGAAA | -0.115 |
| TAATACGA | -0.0843 |
| AGACCTAA | -0.216 |
| CAATCCCC | 0.0966 |
| AGTCTACA | -0.149 |
| CAACTGTG | -0.132 |
| AGGGGGCG | -0.088 |
| AGTTCAAC | 0.109 |
| CTCCAACA | -0.124 |
| CATACGAC | -0.235 |

| Sequence | PBM E-score |
| --- | --- |
| ATACTCAA | 0.0186 |
| CATTAGGC | -0.194 |
| CATGCCGA | 0.353 |
| ATGCAGTG | -0.181 |
| AATTCGCT | -0.0479 |
| AGCGTGAG | -0.261 |
| AGGGCTTA | -0.124 |
| ACCTTCCA | -0.101 |
| ACGACCTA | -0.0714 |
| GATATGAC | 0.0541 |
| GGACTCCC | 0.0915 |
| AAATACAG | -0.0672 |
| AATGTGGT | -0.159 |
| TAACAAGA | -0.0585 |
| AATAACCC | 0.219 |
| CGGACTCA | 0.222 |
| TATAGATA | -0.132 |
| CTGGGTCA | -0.153 |
| ATTCAACG | -0.0192 |
| ATTGTAAA | 0.0174 |
| ACCTATAC | -0.0823 |
| ATGGACTC | -0.0251 |

| Sequence | PBM E-score |
| --- | --- |
| AGGGGCTA | -0.212 |
| CGTCACTC | 0.0312 |
| TCACGCAA | -0.0837 |
| CGTGCCAA | -0.123 |
| GAGCTGTA | -0.234 |
| GGCGGCAC | 0.214 |
| CCCTGTTA | 0.126 |
| AGTGGTGG | -0.201 |
| AAATAAAT | 0.0711 |
| CATGTGCG | -0.0228 |
| ACCGTAAC | 0.111 |
| AGACTAAC | -0.113 |
| GGGAGTTA | 0.0482 |
| CGGACCAA | 0.208 |
| CGGGTCTC | 0.283 |
| AACCAGAT | 0.0971 |
| GTTTCTGA | 0.111 |
| TGCTCGAA | -0.178 |
| ATAGAATG | -0.197 |
| CGCGAGCA | -0.193 |
| CCCTAAAC | -0.179 |
| AGTTTTCG | 0.152 |

| Sequence | PBM E-score |
| --- | --- |
| ATACTTAG | -0.0338 |
| GGCCTGCA | -0.183 |
| GGGGCAAC | -0.255 |
| CCCTCATA | -0.293 |
| TACCACCA | 0.0881 |
| ATTTCTGA | -0.319 |
| GCATGGGC | -0.153 |
| CTAAACGC | 0.0223 |
| AAGCCCCC | 0.00982 |
| CCGTTCTC | 0.0162 |
| AGAGGGTA | -0.297 |
| AACTGCTG | -0.148 |
| AAATAGGA | -0.0261 |
| CGCAGCCG | 0.275 |
| CACTGACG | -0.226 |
| GATAATTA | 0.18 |
| CGCTCAAA | -0.159 |
| TAAGCGGA | 0.138 |
| CGTTAGCC | 0.13 |
| ACGCCACT | -0.107 |
| CCCAACCC | 0.0175 |
